From the supplement of paper PMC10126150
Values marked as one replicate rest on one cluster of the flow cell; about a third of the high ones do not repeat.
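Further: ATP exposure 15 min at 22 °C before imaging.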

Each sequence was assayed on ATP (assay: switch fluorescence ratio, 500 uM ATP over buffer (Cy3 cluster intensity, sum of 5 cycles each) (fold (ratio)); higher = stronger signal-on switching upon ATP binding; sequences stand for … in TCGTCGGCAGCGTCAGATGTGTATAAGAGACAGTTTTTTTTTTTTTTTTTTTTTTTTT…TC). Conditions: aptamer strand: ATP DNA aptamer (quencher-CACCTGGGGGAGTATTGCGGAGGAAGG + anchor), 100 nM annealed; ATP concentration: 500 uM; one replicate.
How it was run: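 Cy3-labelled switching-strand clusters on a modified Illumina MiSeq flow-cell were annealed to 100 nM quencher-labelled ATP aptamer and imaged first in selection buffer, then after 15 min with 500 uM ATP at 22 °C. NaOH stripping and re-annealing separated each of five buffer/ATP cycles, and clusters outside 100-1000 RFU were excluded. The fluorescence ratio sums target-cycle Cy3 intensity over buffer-cycle Cy3 intensity per cluster and averages it per switch-domain sequence.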
AGAATAATCT showed a switch fluorescence ratio of 1.04. AGAATCACGA gave a switch fluorescence ratio of 1.03. With AGAATGCCTG the switch fluorescence ratio was 1.01. Sequence AGAATGTAAG has a switch fluorescence ratio of 1.01. AGAATTAGCT was tested, and the switch fluorescence ratio was 1.03. In the case of AGAATTCGGA, the switch fluorescence ratio is reported as 0.997. AGAATTGCAA showed a switch fluorescence ratio of 1.04. Sequence AGAATTTCCT has a switch fluorescence ratio of 0.954. Work on AGACAAGAGT yielded a switch fluorescence ratio of 1.01. AGACAAGTCC was tested, and the switch fluorescence ratio was 1.05. AGACAGCTCG showed a switch fluorescence ratio of 1.04. Sequence AGACAGTTAT has a switch fluorescence ratio of 1.01. AGACATCACG showed a switch fluorescence ratio of 1.22. AGACCCCAAA gave a switch fluorescence ratio of 1.04. AGACCGGCC gave a switch fluorescence ratio of 1.36. Sequence AGACCGTA has a switch fluorescence ratio of 1.14. AGACCTGACT showed a switch fluorescence ratio of 1.84. AGACCTTATG showed a switch fluorescence ratio of 0.953. Sequence AGACGAACAA has a switch fluorescence ratio of 1.6. In the case of AGACGGACTG, the switch fluorescence ratio is reported as 1.03. AGACGGCCTT was tested, and the switch fluorescence ratio was 1.02. Sequence AGACGGGACA has a switch fluorescence ratio of 1.1. Sequence AGACGGGCT has a switch fluorescence ratio of 1.03. With AGACGTAGCC the switch fluorescence ratio was 1.03. AGACGTGAGT showed a switch fluorescence ratio of 0.937. Sequence AGACGTTAAG has a switch fluorescence ratio of 1.01. Work on AGACTAGAAA yielded a switch fluorescence ratio of 1. AGACTAGCGC gave a switch fluorescence ratio of 0.965. For AGACTATGGT, the switch fluorescence ratio was 1.01. AGACTCACCT gave a switch fluorescence ratio of 1.33. For AGACTCCGTA, the switch fluorescence ratio was 1.08. For AGACTCTAAG, the switch fluorescence ratio was 1. AGACTGAAGT showed a switch fluorescence ratio of 1.01. For AGACTGCGAG, the switch fluorescence ratio was 0.99. In the case of AGACTGTGC, the switch fluorescence ratio is reported as 1. In the case of AGACTTGTAT, the switch fluorescence ratio is reported as 0.993. With AGACTTTGGG the switch fluorescence ratio was 1.04. AGAGAAAACC gave a switch fluorescence ratio of 1.07. Sequence AGAGAAATAA has a switch fluorescence ratio of 0.991. Work on AGAGAAGAAC yielded a switch fluorescence ratio of 1.01. With AGAGACAGGA the switch fluorescence ratio was 0.986. In the case of AGAGACAGGT, the switch fluorescence ratio is reported as 1.02. With AGAGACATAA the switch fluorescence ratio was 1.01. For AGAGACCGA, the switch fluorescence ratio was 0.994. Sequence AGAGAGAAAC has a switch fluorescence ratio of 1.02. With AGAGAGAGAG the switch fluorescence ratio was 0.995. AGAGAGGGT showed a switch fluorescence ratio of 0.996. AGAGAGTAGC showed a switch fluorescence ratio of 0.989. AGAGAGTTAA showed a switch fluorescence ratio of 1.02. Sequence AGAGATGGAA has a switch fluorescence ratio of 1.12. With AGAGATTCGC the switch fluorescence ratio was 1. AGAGCAGCCG showed a switch fluorescence ratio of 0.983. Work on AGAGCAGGGT yielded a switch fluorescence ratio of 1.01. Sequence AGAGCATGAG has a switch fluorescence ratio of 1.03. AGAGCCCCCA was tested, and the switch fluorescence ratio was 1.03. For AGAGCGGGAT, the switch fluorescence ratio was 0.999. Sequence AGAGCGTTTG has a switch fluorescence ratio of 0.979. For AGAGCTAAGG, the switch fluorescence ratio was 0.985. Sequence AGAGCTTAGG has a switch fluorescence ratio of 1. AGAGGAGA was tested, and the switch fluorescence ratio was 1.02. Work on AGAGGCGAAA yielded a switch fluorescence ratio of 1. AGAGGCGAGT gave a switch fluorescence ratio of 1.03. In the case of AGAGGCGGTC, the switch fluorescence ratio is reported as 1. AGAGGCGTTC gave a switch fluorescence ratio of 1.02. AGAGGCTTGC showed a switch fluorescence ratio of 1.17. AGAGGGGCTG showed a switch fluorescence ratio of 0.954. In the case of AGAGGTAAAG, the switch fluorescence ratio is reported as 1.02. With AGAGGTCAAG the switch fluorescence ratio was 1.01. Work on AGAGTAATA yielded a switch fluorescence ratio of 1.05. AGAGTGCTGT was tested, and the switch fluorescence ratio was 0.978. AGAGTGCTTA showed a switch fluorescence ratio of 1.01. AGAGTGTACA showed a switch fluorescence ratio of 0.994. Work on AGAGTTCTCT yielded a switch fluorescence ratio of 0.998. AGAGTTGAGG was tested, and the switch fluorescence ratio was 0.992. Work on AGAGTTTCCT yielded a switch fluorescence ratio of 1.01. For AGAGTTTTT, the switch fluorescence ratio was 0.979. With AGATAACTT the switch fluorescence ratio was 1.01. For AGATAAGGCT, the switch fluorescence ratio was 0.985. In the case of AGATACGGGG, the switch fluorescence ratio is reported as 1.01. Sequence AGATAGAAGC has a switch fluorescence ratio of 1.06. In the case of AGATAGCCA, the switch fluorescence ratio is reported as 0.995. In the case of AGATAGTAAG, the switch fluorescence ratio is reported as 1. Sequence AGATAGTCTA has a switch fluorescence ratio of 1.03. With AGATAGTCTG the switch fluorescence ratio was 1. Sequence AGATATTTGA has a switch fluorescence ratio of 0.971.
